43 compounds from paper PMC4336329 (PLoS ONE, 2015) can be followed below.

The structures appear in SMILES notation. The whole screen tested about 310,000 compounds, of which about 14,000 (4.5%) showed an effect of 50% or more. Effects have a minus sign here. The list shows a part of the results.
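Note: peak tail current of the secondary pulse compared with the same well before compound.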

human ether-à-go-go-related gene (hERG) potassium channel, sequence (Q12809 whole entry, looked up): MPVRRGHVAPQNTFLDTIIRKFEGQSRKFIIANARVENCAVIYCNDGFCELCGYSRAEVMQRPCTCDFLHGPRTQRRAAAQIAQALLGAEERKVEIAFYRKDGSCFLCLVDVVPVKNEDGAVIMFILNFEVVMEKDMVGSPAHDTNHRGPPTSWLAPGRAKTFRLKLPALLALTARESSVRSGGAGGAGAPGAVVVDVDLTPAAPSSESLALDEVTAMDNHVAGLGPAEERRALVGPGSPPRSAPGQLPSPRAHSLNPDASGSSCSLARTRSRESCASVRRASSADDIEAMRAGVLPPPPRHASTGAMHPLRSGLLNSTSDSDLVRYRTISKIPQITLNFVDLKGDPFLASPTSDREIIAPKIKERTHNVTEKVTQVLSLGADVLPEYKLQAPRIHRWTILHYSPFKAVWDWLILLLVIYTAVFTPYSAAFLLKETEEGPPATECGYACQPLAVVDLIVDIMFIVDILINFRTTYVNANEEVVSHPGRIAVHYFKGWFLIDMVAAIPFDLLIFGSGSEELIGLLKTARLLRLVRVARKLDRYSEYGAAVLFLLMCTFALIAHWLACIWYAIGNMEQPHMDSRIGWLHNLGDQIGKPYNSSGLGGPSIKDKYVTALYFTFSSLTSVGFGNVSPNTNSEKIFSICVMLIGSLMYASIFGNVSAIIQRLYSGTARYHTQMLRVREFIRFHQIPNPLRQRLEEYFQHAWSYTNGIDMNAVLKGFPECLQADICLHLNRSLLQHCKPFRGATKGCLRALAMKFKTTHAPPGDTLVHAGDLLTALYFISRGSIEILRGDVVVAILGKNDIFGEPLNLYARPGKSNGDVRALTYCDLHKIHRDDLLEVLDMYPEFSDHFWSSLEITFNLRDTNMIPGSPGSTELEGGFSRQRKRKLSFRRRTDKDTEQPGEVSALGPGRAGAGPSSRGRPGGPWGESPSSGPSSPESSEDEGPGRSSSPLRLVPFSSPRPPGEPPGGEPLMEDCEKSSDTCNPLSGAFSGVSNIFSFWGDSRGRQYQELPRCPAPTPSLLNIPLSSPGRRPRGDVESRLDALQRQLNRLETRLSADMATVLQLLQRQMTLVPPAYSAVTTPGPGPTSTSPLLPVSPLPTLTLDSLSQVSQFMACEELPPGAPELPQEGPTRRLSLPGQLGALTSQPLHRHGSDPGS

The assay has as its target human ether-à-go-go-related gene (hERG) potassium channel (human, UniProt Q12809). Nature of the assay: primary screen, population patch clamp on CHO cells stably expressing hERG.
As to `Cc1c(C(=O)N2CCCC2)oc2ccc(Br)cc12`, the “hERG current change (%, negative = inhibition) at 10uM” value came out at 5.87%.

On to `CC1CCCCC1NC(=O)CSc1nnc(COc2ccccc2Cl)o1` (stereo not shown), for which the “hERG current change (%, negative = inhibition) at 10uM” value is listed as 6.74%.

As for `CC(C)(C)c1ccc(C(=O)C2CCCN(C3CCC3)C2)cc1` (stereo not shown), the “hERG current change (%, negative = inhibition) at 10uM” value is -18.4%.

For `CN(C(=O)CSc1nnc(CNC(=O)c2ccccc2)o1)c1ccccc1`, the “hERG current change (%, negative = inhibition) at 10uM” value is reported as -4.27%.

As for `CCn1c(=N)c(S(=O)(=O)c2ccc(F)cc2)cc2c(=O)n3ccccc3nc21`, the “hERG current change (%, negative = inhibition) at 10uM” value was -10.5%.

As to `CCOC(=O)Cc1csc(NC(=O)c2cc(OC)cc(OC)c2)n1`, the “hERG current change (%, negative = inhibition) at 10uM” value is given as -10.6%.

For the compound `CCCC(C)c1nnc(NC(=O)CCS(=O)(=O)Cc2ccccc2)s1` (stereo not shown), the “hERG current change (%, negative = inhibition) at 10uM” value is on record as 13.1%.

For `COc1ccc(NC(=O)CN2CCN(CC(=O)Nc3ccc(OC)c(OC)c3)CC2)cc1`, the “hERG current change (%, negative = inhibition) at 10uM” value is -74.6%.

On to `COc1cc(/C=N/Nc2snc(SC)c2C#N)cc(OC)c1OC`, for which the “hERG current change (%, negative = inhibition) at 10uM” value is listed as 10.5%.

Take `O=C(c1ccc(C#CC2(O)CCCCC2)cc1)N1CCOCC1`: the “hERG current change (%, negative = inhibition) at 10uM” value is on record as 10.7%.

For the compound `CN(C)S(=O)(=O)c1ccc(C(=O)OCC(=O)Nc2sc3c(c2C#N)CCCCC3)cc1`, the “hERG current change (%, negative = inhibition) at 10uM” value amounted to 4.54%.

Consider `COc1ccc(OC)c(Cc2nnc(CCC(=O)N3CCC(N4CCCCC4)CC3)o2)c1`, for which the “hERG current change (%, negative = inhibition) at 10uM” value is listed as -0.336%.

As for `CCOc1ccc(S(=O)(=O)NCc2cccnc2)cc1NC(=O)c1ccccc1F`, the “hERG current change (%, negative = inhibition) at 10uM” value turned out to be 11.1%.

For the compound `CC(C)c1nnc(NC(=O)CN(C)S(=O)(=O)c2ccc3c(c2)OCCO3)s1`, the “hERG current change (%, negative = inhibition) at 10uM” value was determined as 9.25%.

Take `O=C1CC(c2ccsc2)c2cc3c(cc2N1)OCCO3` (stereo not shown): the “hERG current change (%, negative = inhibition) at 10uM” value is given as -4.17%.

On to `O=C(NC(=S)Nc1ccc(N2CCCC2)cc1)c1ccccc1[N+](=O)[O-]`, for which the “hERG current change (%, negative = inhibition) at 10uM” value is on record as -2.59%.

As for `NC(=O)c1cc(C(=O)c2ccc(Cl)cc2Cl)c[nH]1`, the “hERG current change (%, negative = inhibition) at 10uM” value is reported as 7.81%.

Turning to `CNc1cc([N+](=O)[O-])ccc1N/C=C/C(=O)c1cccs1`, the “hERG current change (%, negative = inhibition) at 10uM” value was -0.257%.

Turning to `O=C(Nc1nnc(CSCc2ccccc2F)s1)c1cccc([N+](=O)[O-])c1`, the “hERG current change (%, negative = inhibition) at 10uM” value is given as -0.45%.

For the compound `CCOc1ccc(CC(=O)N2CCC3(CC2)NCCc2[nH]cnc23)cc1`, the “hERG current change (%, negative = inhibition) at 10uM” value was determined as 16.3%.

For the compound `COC(=O)c1cnn(-c2ccccc2)c1-n1cccc1C=O`, the “hERG current change (%, negative = inhibition) at 10uM” value was 7.29%.

Consider `c1ccc(CCN(Cc2ccccc2)Cc2nc(C3CC3)no2)cc1`, for which the “hERG current change (%, negative = inhibition) at 10uM” value is 10.2%.

For the compound `COc1ccc(CN(C)CCc2ccccn2)c(OC)c1OC.O=C(O)C(=O)O`, the “hERG current change (%, negative = inhibition) at 10uM” value was -38.9%.

Take `Cn1c(=O)c([N+](=O)[O-])c(-n2ccnc2)c2ccccc21`: the “hERG current change (%, negative = inhibition) at 10uM” value is -7.68%.

Consider `CCOc1ccc(CCNC(=O)C2CC(=O)N(Cc3ccc(C)cc3)C2)cc1OCC` (stereo not shown), for which the “hERG current change (%, negative = inhibition) at 10uM” value is listed as -2.17%.

Take `O=C(NCc1ccco1)C(=O)NCC(c1ccco1)N1CCOCC1` (stereo not shown): the “hERG current change (%, negative = inhibition) at 10uM” value is 13%.

On to `Cc1cccc(NC(=O)C2CCN(c3ncnc4c3nc3n4CCCCC3)CC2)n1`, for which the “hERG current change (%, negative = inhibition) at 10uM” value is reported as -29.5%.

For the compound `Cc1ccccc1C(=O)Nc1nc2n(n1)C(c1ccccc1)CC(=O)N2` (stereo not shown), the “hERG current change (%, negative = inhibition) at 10uM” value is recorded as -10.4%.

For the compound `Cc1ccc(C)c(N2CCN(CC3CCCCC3)CC2)c1`, the “hERG current change (%, negative = inhibition) at 10uM” value came to 11.3%.

With `N#Cc1ccc(C(=O)Nc2cc(-c3ccccc3)nn2-c2ccccc2)cc1`, the “hERG current change (%, negative = inhibition) at 10uM” value is given as -41.8%.

In the case of `CCN(CC(=O)Nc1ccc2c(c1)OCCO2)S(=O)(=O)c1cccs1`, the “hERG current change (%, negative = inhibition) at 10uM” value is recorded as -4.54%.

For the compound `CC(=O)NC1(C(F)(F)F)C(=O)N(Cc2ccccc2)C2=C1C(=O)CC(C)(C)C2` (stereo not shown), the “hERG current change (%, negative = inhibition) at 10uM” value is given as 26.4%.

On to `O=C(O)CC1(CC(=O)Nc2ccccc2N2CCOCC2)CCCC1`, for which the “hERG current change (%, negative = inhibition) at 10uM” value was found to be 10.8%.

As for `CCOc1ccccc1NC(=O)CSc1nnc(-c2ccncc2)o1`, the “hERG current change (%, negative = inhibition) at 10uM” value is recorded as -6.16%.

Consider `Cc1ccccc1CNC(=O)CN1C(=O)c2ccccc2S1(=O)=O`, for which the “hERG current change (%, negative = inhibition) at 10uM” value is given as -0.629%.

On to `COc1ccc(C)cc1N(C(=O)Cn1nnc(-c2ccc(C)o2)n1)C(C(=O)NC1CCCC1)c1ccncc1` (stereo not shown), for which the “hERG current change (%, negative = inhibition) at 10uM” value turned out to be 10%.

Turning to `O=C(Nc1ccc(N2CCOCC2)c(Cl)c1)c1cc(F)c(F)cc1Cl`, the “hERG current change (%, negative = inhibition) at 10uM” value is recorded as -20.9%.

Take `CC(C)OP(=O)(OC(C)C)C(Nc1ccccc1)c1cccnc1` (stereo not shown): the “hERG current change (%, negative = inhibition) at 10uM” value came to 6.73%.

With `Cc1cc(C)n2nc(SCn3nnc4ccccc4c3=O)nc2n1`, the “hERG current change (%, negative = inhibition) at 10uM” value is 6.26%.

`CCC(=O)Nc1nnc(SCC(=O)Nc2ccc3c(c2)OCO3)s1`: the “hERG current change (%, negative = inhibition) at 10uM” value stood at 14.3%.

Turning to `O=C(/C=C/c1ccc(Br)o1)Nc1nccs1`, the “hERG current change (%, negative = inhibition) at 10uM” value stood at 4.09%.

With `CC(=O)CCC(=O)N1CCC(n2nccc2NC(=O)c2ccccc2C)CC1`, the “hERG current change (%, negative = inhibition) at 10uM” value is recorded as 9.06%.

With `COc1ccc(/C=C2/N=C3CCCCCN3C2=O)cc1`, the “hERG current change (%, negative = inhibition) at 10uM” value turned out to be 3.13%.
